Laboratory results taken from the supplement of paper PMC3334620.
Whole data set: some 33,000 sequences, median “E-score (-0.5 to 0.5)” near -0.036, cut for the highest 2% near 0.37. The list shows a part of the results.

Each sequence was assayed against T1, Yer064c (UniProt P40041) (assay: PBM E-score (8-mer binding enrichment) (E-score (-0.5 to 0.5)); higher = stronger / more preferred TF binding; most listed sequences are background and not binding sites). Details: protein concentration: 200 nM; construct: GST-full length.
T1 sequence: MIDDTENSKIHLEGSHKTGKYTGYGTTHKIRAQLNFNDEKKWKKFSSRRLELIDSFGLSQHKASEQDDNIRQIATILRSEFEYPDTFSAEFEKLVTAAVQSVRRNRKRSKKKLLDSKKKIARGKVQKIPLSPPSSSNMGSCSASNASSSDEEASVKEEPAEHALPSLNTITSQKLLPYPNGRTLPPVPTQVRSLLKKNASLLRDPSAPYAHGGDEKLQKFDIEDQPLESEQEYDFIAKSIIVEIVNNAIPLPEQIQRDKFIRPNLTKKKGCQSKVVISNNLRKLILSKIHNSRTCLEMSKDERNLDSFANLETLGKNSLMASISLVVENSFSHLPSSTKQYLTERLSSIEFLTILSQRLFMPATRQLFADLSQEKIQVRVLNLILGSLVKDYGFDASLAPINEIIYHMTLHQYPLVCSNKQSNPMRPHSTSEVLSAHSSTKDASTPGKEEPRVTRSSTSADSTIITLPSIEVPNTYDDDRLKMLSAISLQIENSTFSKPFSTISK
Outline: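 Detection of bound protein used fluorescent anti-GST, with scans normalised by masliner. The proteins were GST-tagged yeast transcription factors applied at about 100-200 nM to universal all-10-mer Agilent arrays made double-stranded by primer extension. Each ungapped eight-base word, pooled with its reverse complement, was scored with an E-score from the Universal PBM Analysis Suite.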
For ATAATATG, the “PBM E-score” value was -0.107. CCGTTTTC was tested, and the “PBM E-score” value was -0.0936. With CCCCTGTC the “PBM E-score” value was -0.333. With ACCTTGTA the “PBM E-score” value was 0.0112. For GATCCCTA, the “PBM E-score” value was -0.0608. GTCGGTGA was tested, and the “PBM E-score” value was 0.13. In the case of CACGAAAA, the “PBM E-score” value was 0.0751. For CAAAACTA, the “PBM E-score” value was 0.117. For AAGCTGCC, the “PBM E-score” value was -0.236. AATCCTCA was tested, and the “PBM E-score” value was 0.0864. In the case of CAACCGTA, the “PBM E-score” value was -0.103. With AAATAGCG the “PBM E-score” value was -0.0475. In the case of GGATCGAA, the “PBM E-score” value was -0.0574. In the case of CGCTATCA, the “PBM E-score” value was -0.271. In the case of GACGCACC, the “PBM E-score” value was -0.166. In the case of ACGCTGCA, the “PBM E-score” value was -0.141. In the case of CCGAGAAC, the “PBM E-score” value was -0.033. CCTCACCC was tested, and the “PBM E-score” value was -0.213. For GCTCTCAC, the “PBM E-score” value was -0.335. AAGCTCAT was tested, and the “PBM E-score” value was -0.0196. For AGGATCCA, the “PBM E-score” value was -0.145. AACGCTAC was tested, and the “PBM E-score” value was -0.265. For AACCTCTT, the “PBM E-score” value was 0.161. With ATATCGTC the “PBM E-score” value was -0.193. In the case of GCAAATCA, the “PBM E-score” value was 0.0991. AAGTCCGC was tested, and the “PBM E-score” value was -0.0299. With CTCCGCTA the “PBM E-score” value was 0.00784. CGCCTGCC was tested, and the “PBM E-score” value was -0.112. For GCTACCGA, the “PBM E-score” value was -0.0666. In the case of AGGTCCGG, the “PBM E-score” value was -0.239. In the case of ACAGAACG, the “PBM E-score” value was 0.0496. With GAAAGTTC the “PBM E-score” value was -0.273. In the case of GAAGATTC, the “PBM E-score” value was 0.276. For AAGAGTTC, the “PBM E-score” value was 0.0614. In the case of GATCGAAA, the “PBM E-score” value was 0.00101. For TCCTTCGA, the “PBM E-score” value was 0.00429. For ATAAGGTA, the “PBM E-score” value was -0.0959. In the case of GTACTCTA, the “PBM E-score” value was 0.121. In the case of CCGCCTAA, the “PBM E-score” value was -0.142. For GCTGCCGA, the “PBM E-score” value was -0.159. In the case of CTTTCGCC, the “PBM E-score” value was -0.218. For GAACACTC, the “PBM E-score” value was -0.0178. AGTAGGTA was tested, and the “PBM E-score” value was 0.0273. For ACAACGCT, the “PBM E-score” value was -0.108. With AGACAAGA the “PBM E-score” value was -0.0299. With TAACACAA the “PBM E-score” value was 0.0793. AATTGCGA was tested, and the “PBM E-score” value was -0.0878. AACGTCCT was tested, and the “PBM E-score” value was -0.254. For CGGTAGAC, the “PBM E-score” value was 0.0865. AATATCAA was tested, and the “PBM E-score” value was 0.134. In the case of ACAGGTCC, the “PBM E-score” value was -0.241. With AGCTTGGA the “PBM E-score” value was -0.209. For ATCCGGAC, the “PBM E-score” value was -0.228. In the case of AGATCTTC, the “PBM E-score” value was -0.202. GATAGAAC was tested, and the “PBM E-score” value was -0.0928. In the case of ATTGCTGA, the “PBM E-score” value was 0.0771. With ATTGGTTG the “PBM E-score” value was -0.0268. With CTCGAGCC the “PBM E-score” value was -0.149. AAGAACGC was tested, and the “PBM E-score” value was -0.215. In the case of CCCGGGGA, the “PBM E-score” value was -0.133. In the case of CTGTAATA, the “PBM E-score” value was 0.153. For ATAAAAAT, the “PBM E-score” value was 0.173. For CCCCATTA, the “PBM E-score” value was -0.0493. In the case of ATTTACAC, the “PBM E-score” value was -0.146. For GAATGTAC, the “PBM E-score” value was -0.0652. For CCGGCCAG, the “PBM E-score” value was -0.293. In the case of CAATGTAC, the “PBM E-score” value was -0.12. GGATCAAC was tested, and the “PBM E-score” value was 0.0597. ATACTAGC was tested, and the “PBM E-score” value was -0.13. AGCGGACT was tested, and the “PBM E-score” value was 0.222. For ATTAGGAA, the “PBM E-score” value was 0.00918. In the case of AACGTTAA, the “PBM E-score” value was 0.118. In the case of GATTTCCC, the “PBM E-score” value was -0.00786. CGGCTAAC was tested, and the “PBM E-score” value was 0.0427. AGCCGGTG was tested, and the “PBM E-score” value was -0.186. In the case of ATCCTACC, the “PBM E-score” value was -0.0858. With CTCGCAGA the “PBM E-score” value was -0.0326. For ACGTCCAT, the “PBM E-score” value was -0.2. With GAGGGTAC the “PBM E-score” value was -0.115. For AGGTGATC, the “PBM E-score” value was 0.0909. In the case of GGAATTGA, the “PBM E-score” value was -0.09. ACTAATGA was tested, and the “PBM E-score” value was 0.333. CACTCGTA was tested, and the “PBM E-score” value was -0.0316. For GGGTTACA, the “PBM E-score” value was -0.123. In the case of ACGTATTA, the “PBM E-score” value was 0.026. With ATTGAAAC the “PBM E-score” value was 0.115. TCCGCTCA was tested, and the “PBM E-score” value was -0.0402. For GCACCTTA, the “PBM E-score” value was 0.0208. For CAGGATTC, the “PBM E-score” value was 0.119. For ACAGTCTC, the “PBM E-score” value was 0.146. CGATCACG was tested, and the “PBM E-score” value was 0.143. In the case of CGGCCACG, the “PBM E-score” value was -0.301. In the case of CGCGAAGC, the “PBM E-score” value was -0.0304. In the case of AGCGCAGG, the “PBM E-score” value was -0.209. With ACTTAGAG the “PBM E-score” value was 0.0977. In the case of CAGCAGGC, the “PBM E-score” value was 0.0176. In the case of CGGACTAC, the “PBM E-score” value was 0.248. In the case of GTAGTCGA, the “PBM E-score” value was 0.263. In the case of AGTACATG, the “PBM E-score” value was 0.0113. With GGGTGTAC the “PBM E-score” value was -0.166. In the case of ACCTGACA, the “PBM E-score” value was 0.145. In the case of ACTATGTG, the “PBM E-score” value was 0.165. For ATTACTGG, the “PBM E-score” value was 0.171. For CCCAGTCA, the “PBM E-score” value was 0.316. With CCGGATCC the “PBM E-score” value was -0.322. In the case of ACTTCCGG, the “PBM E-score” value was 0.0468. In the case of CAGCGGTC, the “PBM E-score” value was -0.224. With AAGGGAGC the “PBM E-score” value was -0.26. In the case of ACCTGAAA, the “PBM E-score” value was -0.0522. With GATAAAGC the “PBM E-score” value was -0.121. With AAGCATGT the “PBM E-score” value was -0.0498. CCGTCTGC was tested, and the “PBM E-score” value was -0.191. With AGCCAAAT the “PBM E-score” value was 0.0167. AAATGTCG was tested, and the “PBM E-score” value was -0.3. For ATGCGGTA, the “PBM E-score” value was -0.206. With ACAACGAG the “PBM E-score” value was 0.127. TATTACAA was tested, and the “PBM E-score” value was 0.051. With AATCTCAT the “PBM E-score” value was 0.196. In the case of CTAGGGGA, the “PBM E-score” value was -0.0203. For CAGTCACA, the “PBM E-score” value was 0.42. In the case of CTGGTGTC, the “PBM E-score” value was -0.0248. In the case of ATTTTTAG, the “PBM E-score” value was 0.097. With ACTCACGA the “PBM E-score” value was 0.388. CACAATCC was tested, and the “PBM E-score” value was 0.0619. In the case of AAGGAGCA, the “PBM E-score” value was -0.219. In the case of CTCGACAG, the “PBM E-score” value was 0.13. For AACGAACT, the “PBM E-score” value was 0.119. In the case of CGGAAAGA, the “PBM E-score” value was -0.00726. For GAGCTGCC, the “PBM E-score” value was -0.133. In the case of CCAAACTA, the “PBM E-score” value was 0.016. With TCGTCGCA the “PBM E-score” value was -0.0159. With GACACTGC the “PBM E-score” value was -0.249. For CCATAACC, the “PBM E-score” value was -0.105. With ATGAGGCG the “PBM E-score” value was -0.224. For ATCGGTTG, the “PBM E-score” value was -0.00251. For CTGGGGGC, the “PBM E-score” value was -0.365. With ACGATAGT the “PBM E-score” value was 0.147. With GGAGTTCA the “PBM E-score” value was 0.134. AGCAATGA was tested, and the “PBM E-score” value was 0.147. With TGATCACA the “PBM E-score” value was 0.236. AGCAACGG was tested, and the “PBM E-score” value was -0.185. CGAATTCA was tested, and the “PBM E-score” value was -0.059. In the case of CCTACGTA, the “PBM E-score” value was 0.073. In the case of AAATGGCG, the “PBM E-score” value was -0.213. With CTGGATCA the “PBM E-score” value was 0.0776. CGGCAATA was tested, and the “PBM E-score” value was -0.0808. For TAGAACTA, the “PBM E-score” value was 0.0448. AGCCAGGC was tested, and the “PBM E-score” value was -0.0633. With CAGTTCCG the “PBM E-score” value was -0.195. ATAAGCGC was tested, and the “PBM E-score” value was -0.127. For ATGAGTCC, the “PBM E-score” value was 0.442. For AAATTTGG, the “PBM E-score” value was -0.034. In the case of GCCAGTCC, the “PBM E-score” value was -0.276. In the case of AGAGCCAT, the “PBM E-score” value was 0.225. In the case of AGACCCCG, the “PBM E-score” value was -0.123. CTGCACTC was tested, and the “PBM E-score” value was 0.12. CTTGCACA was tested, and the “PBM E-score” value was -0.0803. With GACAAAGC the “PBM E-score” value was -0.153. AATGAGGG was tested, and the “PBM E-score” value was -0.0827. With CCCACGTC the “PBM E-score” value was -0.157. In the case of CGCGGCAG, the “PBM E-score” value was -0.159. With AGCCCGAC the “PBM E-score” value was -0.0445. ACCTATCT was tested, and the “PBM E-score” value was -0.293. With ACTGTTTC the “PBM E-score” value was -0.016. In the case of GATCGAGC, the “PBM E-score” value was -0.119. GACCCCTA was tested, and the “PBM E-score” value was -0.152. For TATCGATA, the “PBM E-score” value was 0.0589. For ACCTGGAT, the “PBM E-score” value was -0.0406. In the case of AGCCTAAG, the “PBM E-score” value was -0.149. For ACGCGTAT, the “PBM E-score” value was -0.171. In the case of GGAGTAGA, the “PBM E-score” value was -0.0156. GTTGTCTA was tested, and the “PBM E-score” value was -0.0929.
